Data reported in paper PMC12136788.
This is one part of the list.

B1: chr3:101378695:101378696:-_ENSG00000066422_ENST00000312938|hu_mus|FALSE|FALSE (ssRNA)
RNA: GGGAGUUCUACAGUCCGACGAUCCGGCUUUACACCCGUGUGCUUUAGCAUAUGUAUGCGGAGAGAGUAUAAUUUAGGUAAUGUCCUUCCACAUAUAGAACAUAUAAAUUCUCUUUUGGUUCUUCCCUUCUCAGAUGAUCCUCCCAACAGAGGAUUGAGCAUCA
B2: chrX:17818885:17818886:+_ENSMUSG00000037369_ENSMUST00000044484|mus_hu|FALSE|FALSE (ssRNA)
RNA: GGGAGUUCUACAGUCCGACGAUCAUACCAGGACUGGCCAGAAUUAGGAUCUGCUUCCAAGGACUUUUGGAGAUACUGAAUAGCAUAGCUUUCCUUGGUGGCUUUAUCUCCCAGGAGAUCUACAGUGUGAUGCAUCCAACCUAACAACAGAGGAUUGAGCAUCA
B3: chr10:17279496:17279497:+_ENSG00000026025_ENST00000224237|hu_mus|FALSE|FALSE (ssRNA)
RNA: GGGAGUUCUACAGUCCGACGAUCUUUAAUGGUAUUCAAAAAUACUUUAAAAAGUAUUCUAGCACAAGAUUUCUUCGUAAACUAGAUUAUUUUGUAAACCUUUUCUACGUCUUUUGGGGUGUCAGUUGUUAAGUGCUGAGCUUCCAACAGAGGAUUGAGCAUCA
B4: 65116393_65119264_1212_3pUTR_ENSG00000133884_ENST00000252268|human|control|control (ssRNA)
RNA: GGGAGUUCUACAGUCCGACGAUCCUUAGAUAUGUCGGGGAGCAGGUGGGUGGCCACAUCAAGAGGAGUUCUGGUUCUGGUAGAUGGAAGCUUUCUCUUUCAACAGGUCCAGACACAGGUGGCAGCUCCAACUUCCUUCAGGGGCAACAGAGGAUUGAGCAUCA
B5: chr17:39846101:39846102:+_ENSG00000173812_ENST00000591776|hu_hu|FALSE|FALSE (ssRNA)
RNA: GGGAGUUCUACAGUCCGACGAUCAUCAUCAGCGAUCCCUUGGACAGUAGUAAGGGUCUUCCUGCCGUUUCUCUGUUGAAUUCUUAUAUGGAUAUAAUCCUCAGUGCCAGCAGGAAGCAGGUCAUCACCCUUACUUGCAUCAGCCAACAGAGGAUUGAGCAUCA
B6: 90371925_90372597_14501_CDS_ENSG00000112159_ENST00000369393|human|control|control (ssRNA)
RNA: GGGAGUUCUACAGUCCGACGAUCGUUGUCAUCUUUAGCAACAAGUUCAGAAUCUUCCUCAUCCAUUCCUGGUCCUGUUUCUUCAGUUUUAUUGUCUUCUUCCUCCUCAUCUUCCUCCUCAUCAUCAUCACCCCAAAGCCUCUCCAACAGAGGAUUGAGCAUCA
B7: chr9:114624755:114624756:+_ENSMUSG00000032435_ENSMUST00000047404|mus_mus|FALSE|FALSE (ssRNA)
RNA: GGGAGUUCUACAGUCCGACGAUCGAUGUCUUCAAAAUUAUCUUCUACUUUCAAAGUCUGAAAAUUUUCAUGUAAUAUUCCUAUUUUCUUAUCAUUAUCCCACCCUGCUGGAAUAAACACUGCGUCCUUCUCCACCACCACCGCCAACAGAGGAUUGAGCAUCA
B8: chr5:132409753:132409754:+_ENSG00000170606_ENST00000304858|hu_hu|FALSE|FALSE (ssRNA)
RNA: GGGAGUUCUACAGUCCGACGAUCUCUAUUAAAUGCACAUACAGAAACUUGAUAAGCAGAGUGGCCCAUGUCUACAAAAACUACAUUUCUUGGUUUCUCUUCUAAGGCAGGAAGAUCCUGCUUAUAGAUUCCAUAUGCAAGAGCCAACAGAGGAUUGAGCAUCA
B9: chr11:46405157:46405158:+_ENSG00000110492_ENST00000395566|hu_hu|hu_hu_hu_mus_False|18_58 (ssRNA)
RNA: GGGAGUUCUACAGUCCGACGAUCCCCUCCCCACUUUGGGCACUUGGUGUGGGCGUGAGAGGACAGGCGUGAUUGACAAAGCUAACGGGAAGACAAAAGGCACUGGUGGGUUAUAUCUCGGGCCUGGGGGAGAGGAGGGCUCCGCAACAGAGGAUUGAGCAUCA
B10: chr10:33214929:33214930:-_ENSG00000150093_ENST00000302278|hu_hu|hu_hu_hu_mus_True|78_98 (ssRNA)
RNA: GGGAGUUCUACAGUCCGACGAUCAACAAGUUCAUUGAAUACUUCUCCUCUGUCAGUAAGACUGAGCACAUUUUUGUAGCUAAAUGGGCUGGUGCAGUUUUGUUCACUUGUACAAGGAUUUCUUAGCUUUGCUGGGGUUGUGCUCAACAGAGGAUUGAGCAUCA
B11: chr1:60041781:60041782:+_ENSMUSG00000041040_ENSMUST00000036540|mus_hu|mus_mus_mus_hu_False|1_68 (ssRNA)
RNA: GGGAGUUCUACAGUCCGACGAUCAAGUUUACAAUAGUAAAGUAAAUGCAGUAGUGGCAAAUUUUCUUUACUUUAGUUUCACAAAAGAAAAUCUUUAUAACCCAGUCCUAGUCUUGGACAUAGUGAAAGCUAUAAAUGCCACUGCAACAGAGGAUUGAGCAUCA
B12: chr2:181324804:181324805:-_ENSMUSG00000000823_ENSMUST00000128553|mus_hu|FALSE|FALSE (ssRNA)
RNA: GGGAGUUCUACAGUCCGACGAUCGAUGGCACCCCCUUGGCACCGCUGGUAAUGGUACUUGAGCCCGUAGAUGCUGGGGAACUCCAGCCAGCACCCUGAGUUUGGACACUUCACCCUCGAGUGUGCCUUGAACUCAUCCUUCCACAACAGAGGAUUGAGCAUCA
B13: chr2:168009442:168009443:-_ENSMUSG00000051149_ENSMUST00000088001|mus_hu|FALSE|FALSE (ssRNA)
RNA: GGGAGUUCUACAGUCCGACGAUCGCGAUUACAGUAGAGGCAUUUGCUAGUAAAAUUGUGUAUUUUCAUAAUGUAGUUGGCUACUGCUGGGACUUUCUCAGCUUUAUGUUCUUUUUCGAAGUGCACACUAUAGACAUUUUCAGGCAACAGAGGAUUGAGCAUCA
B14: chr18:65375181:65375182:+_ENSMUSG00000024589_ENSMUST00000163516|mus_hu|FALSE|FALSE (ssRNA)
RNA: GGGAGUUCUACAGUCCGACGAUCGAGAACCGCAACAGGCAGUGUGUGAGCUCCGGCACGUACUUCUCAGCCUCAUGUAAGUGGCCCAUAAUAACUACAGCUUCAGCAGACAACUAAAGAGACUGCAUUAAGGUGAUUUCUCUGCAACAGAGGAUUGAGCAUCA
B15: chr7:118215863:118215864:-_ENSMUSG00000005610_ENSMUST00000162415|mus_mus|motif|central (ssRNA)
RNA: GGGAGUUCUACAGUCCGACGAUCUAUUGCAACAACUCAAGUAUUACUGAGCAAAGUGCAUCUCUACAGUAUUCAGUGUUGCGGUUCAGUUUUCUAACUUAAAACAGCCUAUGGUAACUGGCAGCAAAGAAGGUCCUUGCAAUACAACAGAGGAUUGAGCAUCA
B16: chr6:38652254:38652255:-_ENSG00000124767_ENST00000373365|hu_hu|hu_hu_hu_mus_False|28_58 (ssRNA)
RNA: GGGAGUUCUACAGUCCGACGAUCCGAGAACUUCAUAGCAGGGAAGUCAAGCUUCUGCAGGAGGGUCAGUCCAAGAACUCUAGUAUAAAAAUCCAGGGACUUCUUAGGAUCCUUCACUCUUAGCAUCGUUUGCUGCAGUAGAAACAACAGAGGAUUGAGCAUCA
B17: chr1:115276673:115276674:-_ENSG00000009307_ENST00000339438|perfect_dup|motif|central (ssRNA)
RNA: GGGAGUUCUACAGUCCGACGAUCUGUGAAUUCCACAUCAUCGCCAGGCUGUAAGGUUUCUAAGUCACCCUUAAAUUCACGGUAGUGAAAGAAUAUCUCUUUUACAACAUCACCUCUUUCAAUAAAGCCAAAUGCCUCCUUCAUCAACAGAGGAUUGAGCAUCA
B18: chrX:98860016:98860017:+_ENSMUSG00000034160_ENSMUST00000044475|mus_mus|motif|central (ssRNA)
RNA: GGGAGUUCUACAGUCCGACGAUCUUCUUUAUAGUGCAUCAGUGCUUCCUGCAGCUUGCCCUGCUGUUGCAGUACACUUGCGGAAUUGGAAUGUGCAGCAGCAAACUCUGGGAAGACUUCUAAUGCUUUGCGAUACAGGCGAACCAACAGAGGAUUGAGCAUCA
B19: chr1:226549179:226549180:-_ENSG00000143799_ENST00000366794|hu_mus|FALSE|FALSE (ssRNA)
RNA: GGGAGUUCUACAGUCCGACGAUCGGCCCUGGGUGCUGGGCACAGCCCACCCCUCGCACUUUACCACAGGGAUGUCUUAAAAUUGAACUUGAGUUUCAGCAGGUAUUUGAGAUUCACCUGAGCAAUGUCGUAGACAAUGUACUCCAACAGAGGAUUGAGCAUCA
B20: 113288042_113288162_3055_3pUTR_ENSG00000114999_ENST00000233336|human|control|control (ssRNA)
RNA: GGGAGUUCUACAGUCCGACGAUCCAGAACCCUACACGUUCUAACUGGGUAUACAUCUUCCCAGGAUCCGAUCAGAUCUCACUCCCAUCUCAGAAUUUCCCAAACACCAACCCAUCGGCUGCGUUGGGCCUCAAGGAUUAAUGACAACAGAGGAUUGAGCAUCA
B21: 29137040_29140844_828_3pUTR_ENSG00000163811_ENST00000407426|human|control|control (ssRNA)
RNA: GGGAGUUCUACAGUCCGACGAUCACAAAGUUAAGUCAAUAUAGACAGGUUCAUCGGUAACUGUAAAUGACAUCACUGCACUCUUUUCUUUGUUUUCUGAUCGGACCUGCCAGACAUUAAGUAACCGGUCAUGUACUGCUCCAGCAACAGAGGAUUGAGCAUCA
B22: chr4:140556289:140556290:+_ENSMUSG00000036622_ENSMUST00000037055|mus_mus|mus_mus_mus_hu_False|58_68 (ssRNA)
RNA: GGGAGUUCUACAGUCCGACGAUCGAUGGAGCUCACCAGGCCCCCUUUUGCCGUGCAGAACCCUGUGCGAGUCACCACUGCUAGCACGUGCGGUCCCACAUAGGCCCGGGCCUGCAAGAUGAGGGUCCCGCAGAAGAGUGUGUGCAACAGAGGAUUGAGCAUCA

Each binder was assayed against T1, UNK ZnF1-3 (human, UniProt Q9C0B0 31-174) (assay: nsRBNS (natural sequence RNA bind-n-seq); RBNS binding buffer (assumed for nsRBNS): 25 mM Tris pH 7.5, 150 mM KCl, 3 mM MgCl2, 0.01% Triton X-100, 500 ug/ml BSA, 20 U/ml SUPERase-In, 4 C; UNK is unkempt and MSI1 is Musashi-1; names of the RNAs are library labels; protein concentration not given here; high values mean tight binding).
T1 sequence: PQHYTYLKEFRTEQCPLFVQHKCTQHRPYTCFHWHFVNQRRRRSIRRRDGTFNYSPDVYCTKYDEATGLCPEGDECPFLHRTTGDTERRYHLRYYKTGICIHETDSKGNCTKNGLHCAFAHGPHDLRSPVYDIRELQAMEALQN

Binder	binding signal
B1	0.592 enrichment R
B2	1.05 enrichment R
B3	0.417 enrichment R
B4	1.62 enrichment R
B5	0.329 enrichment R
B6	0.464 enrichment R
B7	1.05 enrichment R
B8	1.1 enrichment R
B9	2.97 enrichment R
B10	0.798 enrichment R
B11	0.57 enrichment R
B12	0.791 enrichment R
B13	1.32 enrichment R
B14	1.6 enrichment R
B15	1.38 enrichment R
B16	0.762 enrichment R
B17	1.2 enrichment R
B18	0.405 enrichment R
B19	1.22 enrichment R
B20	0.348 enrichment R
B21	0.912 enrichment R
B22	0.907 enrichment R
